# Assay results taken from the supplement of paper PMC8728848.
# The list shows a part of the results.
# B1: Gal 3 (Homo sapiens), P17931 (protein)
# chain: MADNFSLHDALSGSGNPNPQGWPGAWGNQPAGAGGYPGASYPGAYPGQAPPGAYPGQAPPGAYHGAPGAYPGAPAPGVYPGPPSGPGAYPSSGQPSAPGAYPATGPYGAPAGPLIVPYNLPLPGGVVPRMLITILGTVKPNANILDFQRGNDVAFHFNPRFNENNRRVIVCNTLLDNNWGREERQSVFPFESGKPFKIQVLVEPDHFKVAVNDAHLLQYNHRVKKLNEISKLGISGDIDLTSASYTMI
# Legend:
# Test in all cases: glycan array binding signal (z-score within array); higher = stronger binding
# Conditions in all cases: glycan notation: IUPAC condensed, linker removed; mutation: K176L
# [1] = target: Fuc(a1-2)Gal
# In short: (§1)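 From the Consortium for Functional Glycomics database, 3228 arrays were curated, keeping only those whose protein sequence was available. Binding is given as a within-array Z-score averaged across arrays sharing a protein sequence and across linkers. Negative Z-scores can be read as non-binding.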
# [2] = target: Fuc(a1-2)Gal(b1-3)GalNAc
# In short: as §1
# [3] = target: Fuc(a1-2)Gal(b1-3)GalNAc(a1-3)[Fuc(a1-2)]Gal(b1-4)Glc
# In short: as §1
# [4] = target: Fuc(a1-2)Gal(b1-3)GalNAc(a1-3)[Fuc(a1-2)]Gal(b1-4)GlcNAc
# In short: as §1
# [5] = target: Fuc(a1-2)Gal(b1-3)GalNAc(b1-3)Gal
# In short: as §1
# [6] = target: Fuc(a1-2)Gal(b1-3)GalNAc(b1-3)Gal(a1-4)Gal(b1-4)Glc
# In short: as §1
# [7] = target: Fuc(a1-2)Gal(b1-3)GalNAc(b1-4)[Neu5Ac(a2-3)]Gal(b1-4)Glc
# In short: as §1
# [8] = target: Fuc(a1-2)Gal(b1-3)GlcNAc
# In short: as §1
# [9] = target: Fuc(a1-2)Gal(b1-3)GlcNAc(b1-2)Man(a1-3)[Fuc(a1-2)Gal(b1-3)GlcNAc(b1-2)Man(a1-6)]Man(b1-4)GlcNAc(b1-4)GlcNAc
# In short: as §1
# [10] = target: Fuc(a1-2)Gal(b1-3)GlcNAc(b1-3)Gal(b1-4)Glc
# In short: as §1
# [11] = target: Fuc(a1-2)Gal(b1-3)GlcNAc(b1-3)[Fuc(a1-3)[Gal(b1-4)]GlcNAc(b1-6)]Gal(b1-4)Glc
# In short: as §1
# [12] = target: Fuc(a1-2)Gal(b1-3)[Fuc(a1-4)]GlcNAc
# In short: as §1
# [13] = target: Fuc(a1-2)Gal(b1-3)[Fuc(a1-4)]GlcNAc(b1-2)Man(a1-3)[Fuc(a1-2)Gal(b1-3)[Fuc(a1-4)]GlcNAc(b1-2)Man(a1-6)]Man(b1-4)GlcNAc(b1-4)GlcNAc
# In short: as §1
# [14] = target: Fuc(a1-2)Gal(b1-3)[Fuc(a1-4)]GlcNAc(b1-3)[Fuc(a1-3)[Gal(b1-4)]GlcNAc(b1-6)]Gal(b1-4)Glc
# In short: as §1
# [15] = target: Fuc(a1-2)Gal(b1-3)[Fuc(a1-4)]GlcNAc(b1-3)[Gal(b1-4)GlcNAc(b1-6)]Gal(b1-4)Glc
# In short: as §1
# [16] = target: Fuc(a1-2)Gal(b1-4)Glc
# In short: as §1
# [17] = target: Fuc(a1-2)Gal(b1-4)Glc6S
# In short: as §1
# [18] = target: Fuc(a1-2)Gal(b1-4)GlcNAc
# In short: as §1
# [19] = target: Fuc(a1-2)Gal(b1-4)GlcNAc(b1-2)Man(a1-3)[Fuc(a1-2)Gal(b1-4)GlcNAc(b1-2)Man(a1-6)]Man(b1-4)GlcNAc(b1-4)GlcNAc
# In short: as §1
# [20] = target: Fuc(a1-2)Gal(b1-4)GlcNAc(b1-3)Gal(b1-4)GlcNAc
# In short: as §1
# [21] = target: Fuc(a1-2)Gal(b1-4)GlcNAc(b1-3)Gal(b1-4)GlcNAc(b1-3)Gal(b1-4)GlcNAc
# In short: as §1
# [22] = target: Fuc(a1-2)Gal(b1-4)GlcNAc(b1-3)GalNAc
# In short: as §1
# [23] = target: Fuc(a1-2)Gal(b1-4)GlcNAc6S
# In short: as §1
# [24] = target: Fuc(a1-2)Gal(b1-4)[Fuc(a1-3)]GlcNAc
# In short: as §1
# [25] = target: Fuc(a1-2)Gal(b1-4)[Fuc(a1-3)]GlcNAc(b1-2)Man(a1-3)[Fuc(a1-2)Gal(b1-4)[Fuc(a1-3)]GlcNAc(b1-2)Man(a1-6)]Man(b1-4)GlcNAc(b1-4)GlcNAc
# In short: as §1
# [26] = target: Fuc(a1-2)Gal(b1-4)[Fuc(a1-3)]GlcNAc(b1-3)Gal(b1-4)[Fuc(a1-3)]GlcNAc
# In short: as §1
# [27] = target: Fuc(a1-2)Gal(b1-4)[Fuc(a1-3)]GlcNAc(b1-3)Gal(b1-4)[Fuc(a1-3)]GlcNAc(b1-3)Gal(b1-4)[Fuc(a1-3)]GlcNAc
# In short: as §1
# [28] = target: Fuc(a1-2)Gal6S(b1-4)Glc
# In short: as §1
# [29] = target: Fuc(a1-2)Gal6S(b1-4)Glc6S
# In short: as §1
# [30] = target: Fuc(a1-2)Gal6S(b1-4)GlcNAc
# In short: as §1
# [31] = target: Fuc(a1-2)[Gal(a1-3)]Gal
# In short: as §1
# [32] = target: Fuc(a1-2)[Gal(a1-3)]Gal(b1-3)GlcNAc
# In short: as §1
# [33] = target: Fuc(a1-2)[Gal(a1-3)]Gal(b1-3)GlcNAc(b1-2)Man(a1-3)[Fuc(a1-2)[Gal(a1-3)]Gal(b1-3)GlcNAc(b1-2)Man(a1-6)]Man(b1-4)GlcNAc(b1-4)GlcNAc
# In short: as §1
# [34] = target: Fuc(a1-2)[Gal(a1-3)]Gal(b1-4)Glc
# In short: as §1
# [35] = target: Fuc(a1-2)[Gal(a1-3)]Gal(b1-4)GlcNAc
# In short: as §1
# [36] = target: Fuc(a1-2)[Gal(a1-3)]Gal(b1-4)GlcNAc(b1-2)Man(a1-3)[Fuc(a1-2)[Gal(a1-3)]Gal(b1-4)GlcNAc(b1-2)Man(a1-6)]Man(b1-4)GlcNAc(b1-4)GlcNAc
# In short: as §1
# [37] = target: Fuc(a1-2)[Gal(a1-3)]Gal(b1-4)[Fuc(a1-3)]GlcNAc
# In short: as §1
# [38] = target: Fuc(a1-2)[Gal(a1-4)]Gal(b1-4)GlcNAc
# In short: as §1
# [39] = target: Fuc(a1-2)[GalNAc(a1-3)]Gal
# In short: as §1
# [40] = target: Fuc(a1-2)[GalNAc(a1-3)]Gal(b1-3)GalNAc(a1-3)[Fuc(a1-2)]Gal(b1-4)GlcNAc
# In short: as §1
# [41] = target: Fuc(a1-2)[GalNAc(a1-3)]Gal(b1-3)GlcNAc
# In short: as §1
# [42] = target: Fuc(a1-2)[GalNAc(a1-3)]Gal(b1-3)GlcNAc(b1-2)Man(a1-3)[Fuc(a1-2)[GalNAc(a1-3)]Gal(b1-3)GlcNAc(b1-2)Man(a1-6)]Man(b1-4)GlcNAc(b1-4)GlcNAc
# In short: as §1
# [43] = target: Fuc(a1-2)[GalNAc(a1-3)]Gal(b1-4)Glc
# In short: as §1
# [44] = target: Fuc(a1-2)[GalNAc(a1-3)]Gal(b1-4)GlcNAc
# In short: as §1
# [45] = target: Fuc(a1-2)[GalNAc(a1-3)]Gal(b1-4)GlcNAc(b1-2)Man(a1-3)[Fuc(a1-2)[GalNAc(a1-3)]Gal(b1-4)GlcNAc(b1-2)Man(a1-6)]Man(b1-4)GlcNAc(b1-4)GlcNAc
# In short: as §1
# [46] = target: Fuc(a1-2)[GalNAc(a1-3)]Gal(b1-4)GlcNAc(b1-3)Gal(b1-4)GlcNAc
# In short: as §1
# [47] = target: Fuc(a1-2)[GalNAc(a1-3)]Gal(b1-4)GlcNAc(b1-3)Gal(b1-4)GlcNAc(b1-3)Gal(b1-4)GlcNAc
# In short: as §1
# [48] = target: Fuc(a1-2)[GalNAc(a1-3)]Gal(b1-4)[Fuc(a1-3)]GlcNAc
# In short: as §1
# [49] = target: Fuc(a1-2)[GalNAc(a1-4)]Gal(b1-4)GlcNAc
# In short: as §1
# [50] = target: Fuc(a1-2)[GalNAc(b1-3)]Gal
# In short: as §1
# [51] = target: Fuc(a1-3)GlcNAc
# In short: as §1
# [52] = target: Fuc(a1-3)[Gal(b1-4)]Glc6S
# In short: as §1
# [53] = target: Fuc(a1-3)[Gal(b1-4)]GlcNAc
# In short: as §1
# [54] = target: Fuc(a1-3)[Gal(b1-4)]GlcNAc(b1-2)Man(a1-3)[Fuc(a1-3)[Gal(b1-4)]GlcNAc(b1-2)Man(a1-6)]Man(b1-4)GlcNAc(b1-4)GlcNAc
# In short: as §1
# [55] = target: Fuc(a1-3)[Gal(b1-4)]GlcNAc(b1-3)Gal(b1-3)[Fuc(a1-4)]GlcNAc
# In short: as §1
# [56] = target: Fuc(a1-3)[Gal(b1-4)]GlcNAc(b1-3)GalNAc
# In short: as §1
# [57] = target: Fuc(a1-3)[Gal(b1-4)]GlcNAc(b1-4)Gal(b1-4)[Fuc(a1-3)]GlcNAc
# In short: as §1
# [58] = target: Fuc(a1-3)[Gal(b1-4)]GlcNAc(b1-4)Gal(b1-4)[Fuc(a1-3)]GlcNAc(b1-4)Gal(b1-4)[Fuc(a1-3)]GlcNAc
# In short: as §1
# [59] = target: Fuc(a1-3)[Gal(b1-4)]GlcNAc(b1-6)[Gal(b1-3)GlcNAc(b1-3)]Gal(b1-4)Glc
# In short: as §1
# [60] = target: Fuc(a1-3)[Gal(b1-4)]GlcNAc6S
# In short: as §1
binder,measurement,setting,value
B1,glycan array binding signal (z-score),[1],-0.266
same,glycan array binding signal (z-score),[2],-0.262
same,glycan array binding signal (z-score),[3],-0.261
same,glycan array binding signal (z-score),[4],-0.268
same,glycan array binding signal (z-score),[5],-0.267
same,glycan array binding signal (z-score),[6],-0.259
same,glycan array binding signal (z-score),[7],-0.267
same,glycan array binding signal (z-score),[8],-0.077
same,glycan array binding signal (z-score),[9],-0.266
same,glycan array binding signal (z-score),[10],1.58
same,glycan array binding signal (z-score),[11],-0.27
same,glycan array binding signal (z-score),[12],-0.275
same,glycan array binding signal (z-score),[13],-0.251
same,glycan array binding signal (z-score),[14],-0.258
same,glycan array binding signal (z-score),[15],-0.271
same,glycan array binding signal (z-score),[16],-0.263
same,glycan array binding signal (z-score),[17],-0.267
same,glycan array binding signal (z-score),[18],-0.23
same,glycan array binding signal (z-score),[19],0.996
same,glycan array binding signal (z-score),[20],5.06
same,glycan array binding signal (z-score),[21],5.51
same,glycan array binding signal (z-score),[22],-0.266
same,glycan array binding signal (z-score),[23],-0.263
same,glycan array binding signal (z-score),[24],-0.266
same,glycan array binding signal (z-score),[25],-0.257
same,glycan array binding signal (z-score),[26],-0.263
same,glycan array binding signal (z-score),[27],-0.232
same,glycan array binding signal (z-score),[28],-0.268
same,glycan array binding signal (z-score),[29],-0.272
same,glycan array binding signal (z-score),[30],-0.268
same,glycan array binding signal (z-score),[31],-0.269
same,glycan array binding signal (z-score),[32],1.19
same,glycan array binding signal (z-score),[33],5.21
same,glycan array binding signal (z-score),[34],0.593
same,glycan array binding signal (z-score),[35],0.699
same,glycan array binding signal (z-score),[36],7.87
same,glycan array binding signal (z-score),[37],-0.262
same,glycan array binding signal (z-score),[38],-0.269
same,glycan array binding signal (z-score),[39],-0.267
same,glycan array binding signal (z-score),[40],-0.265
same,glycan array binding signal (z-score),[41],0.019
same,glycan array binding signal (z-score),[42],1.65
same,glycan array binding signal (z-score),[43],-0.253
same,glycan array binding signal (z-score),[44],0.393
same,glycan array binding signal (z-score),[45],3.09
same,glycan array binding signal (z-score),[46],3.26
same,glycan array binding signal (z-score),[47],5.28
same,glycan array binding signal (z-score),[48],-0.264
same,glycan array binding signal (z-score),[49],-0.26
same,glycan array binding signal (z-score),[50],-0.259
same,glycan array binding signal (z-score),[51],-0.261
same,glycan array binding signal (z-score),[52],-0.27
same,glycan array binding signal (z-score),[53],-0.265
same,glycan array binding signal (z-score),[54],-0.271
same,glycan array binding signal (z-score),[55],-0.264
same,glycan array binding signal (z-score),[56],-0.26
same,glycan array binding signal (z-score),[57],-0.258
same,glycan array binding signal (z-score),[58],-0.273
same,glycan array binding signal (z-score),[59],-0.265
same,glycan array binding signal (z-score),[60],-0.265
